Experimental data: the supplement of paper PMC11417369
± gives the standard deviation of the averaged measurements. The list shows a part of the results.

Test system: PfAP2-I AP2 domain 3 (GST-tagged)
Test: gcPBM binding intensity (ln(normalized median fluorescence intensity)); higher = stronger DNA binding
Method in brief: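 Each value is the highest Masliner-normalised natural-log median intensity across replicate spots of either orientation of a probe. The probes were primer-extended double-stranded 36-bp intergenic genomic sequences on an Agilent 4 × 180k array, alongside negative controls, exposed for 1 h to GST-tagged P. falciparum DNA-binding domains expressed in E. coli. Bound protein was picked up with Alexa488 anti-GST antibody and scanned at 488 nm.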

| Sequence | gcPBM binding intensity (ln) |
| --- | --- |
| TTTATATATTTTGTCGTGCACATTTGGAAAATTACA [GTGCAC_site9776] | 10.8 ± 0.16 |
| AAAAATTTTTTTTTTTTTTTAAATAATAAAAATGAA [CACACA_negctrl_site1435] | 7.465 ± 0.035 |
| TATTATTATTTTATGGTGCAAAAAAAAAAAAAAAAA | 10.9 ± 0.61 |
| AAAAAGTTATTATGAACACACATTTATTATAGTCAT [CACACA_site6838] | 7.45 ± 0.68 |
| CATATAAATATTTGTGCACACAATTATTAATAATTA [CACACA_site3884] | 11.3 ± 0.23 |
| ATTTGAAATTGGTAGACACACAATAAAATATCAAAA [CACACA_site447] | 7.64 ± 0.62 |
| TTAAACTTGAGACACACACACACACGGATATAAAAA [CACACA_site6495] | 8.12 ± 0.62 |
| CTTTTATTCAAAAGATGTACTTAAATATATATCTAA [XGTACX_site4326] | 7.58 ± 0.18 |
| TGCAGTCTGGAGAAACGTACACAGTATCTGGTAACA [XGTACX_site2014] | 7.79 ± 0.36 |
| ATGTGTATAATTAAATGTACATATATATATATATAT [XGTACX_site829] | 9.57 ± 0.35 |
| ATATATATCGGACACACACACATGTTTTAAAACTAT [CACACA_site4218] | 8.3 ± 0.54 |
| TATAATAATCTAATCTGTAGTTTTTTTTTTTTTTTT [CACACA_negctrl_site1206] | 8.31 ± 0.65 |
| GGCTTTTTTTAATATGCACACATATATTTTATATAT [CACACA_site8647] | 9.32 ± 0.2 |
| AAAAAAAAACAGAAAACACACAAATTATCTTATAAT [CACACA_site4326] | 7.5 ± 0.5 |
| TGTATATATATCTCAGTGCATTGCAAATTAAAAATT [GTGCAC_site9646] | 9.74 ± 0.27 |
| ATACTCACGTGACACACACACAATATAAATAAATAT [CACACA_site7862] | 8.1 ± 0.23 |
| AATAAATAAATAAATAAATATATATATATATATATA [GTGCAC_negctrl_site224] | 9.38 ± 0.47 |
| TTATATTAAAAAAGATGTACGTTTAGGAAAAATATA [XGTACX_site7456] | 7.96 ± 0.43 |
| TTAGATTTAAATATCATACACACTTTATATATAATA [CACACA_site959] | 7.56 ± 0.57 |

| Sequence | gcPBM binding intensity (ln) |
| --- | --- |
| ATAAAAATAAACATACGTACTTACACGAATATACAT [XGTACX_site5989] | 7.83 ± 0.52 |
| CTTGAAAAAATAAAAACACACAATGTGTTTTTGAAT [CACACA_site3283] | 7.42 ± 0.68 |
| ATATTACTATATTATTGTACGTTAAAAAAAAAAAAT [XGTACX_site8734] | 7.87 ± 0.42 |
| TTTCTAAATAATTATAATGAATCTGCAAACAAGCAT [XGTACX_negctrl_site391] | 7.45 ± 0.54 |
| ATTTATATCTCCATATGTTCAAAACTTTCACAAATA [TGCATGCA_negctrl_site108] | 7.78 ± 0.63 |
| TATTAACAAATTTATGTGCACTGAGGACAAATATAT | 10.96 ± 0.085 |
| AAAATAAGTAATTACTAATATATAAATTAATAATTA [CACACA_negctrl_site1602] | 7.12 ± 0.47 |
| AATATAAATTAATTTACACACTAAAAAATATATATA [CACACA_site3778] | 7.81 ± 0.58 |
| AAAGAAAAAAAAATTACACACATATATTATATATAT [CACACA_site3211] | 8.34 ± 0.47 |
| AAATAGAAGAAATATGCACACATACATTGAAATGTT [CACACA_site7996] | 8.56 ± 0.54 |
| TTTTCTTCATAAATGCTGCACTGGTTTAAGCATGAT | 9.09 ± 0.042 |
| TTTATTAATAAACACACACACACACCCAAAATAAAA [CACACA_site7966] | 8.375 ± 0.007 |
| CCTTAATATTTTTGAAGTACATATTTATTTTACAAG [XGTACX_site3049] | 7.92 ± 0.23 |
| TTAATATGAAATAAATGTACATAATACATAATAAAA [XGTACX_site6194] | 7.75 ± 0.52 |
| AATTGAAAAATATATAAGAAGAAATATATATATGTT [GTGCAC_negctrl_site97] | 7.64 ± 0.62 |
| GTTTTTAGTATTTTTTGTACTTAATACATAGCCTTA [XGTACX_site7318] | 7.75 ± 0.57 |
| AACACGCGCGGACACACACACACACCCACATATATA [CACACA_site5252] | 8.25 ± 0.48 |
| TTTATGCATAGAGAAACATGCAAGAAAGATGCAAAA [TGCATGCA_site726] | 9.74 ± 1 |
| TTCCTTATTATTATTTTACACACGTCCTAATAAGAG [CACACA_site8364] | 8.1 ± 0.61 |

| Sequence | gcPBM binding intensity (ln) |
| --- | --- |
| GCTTGTACATTTTTAAAAAATGACTTCGAAAGGAAT [CACACA_negctrl_site453] | 8.07 ± 0.41 |
| ATTATGTATACATAAACACACATATTTATAAAAAAA [CACACA_site6261] | 7.88 ± 0.32 |
| ATATATTTATATATATGTACATATTATGTTAAGAAA [XGTACX_site1111] | 7.87 ± 0.3 |
| TATGTATTCATATGTTGTACATTATATATAATAAGT [XGTACX_site6589] | 8.1 ± 0.36 |
| AGCACACAAAAAAAAAAAAAAAAAAAAAAAGGAATG [GTGCAC_negctrl_site73] | 7.83 ± 0.59 |
| AAATCAGAACCTATTTGTACATATACAAAAATGATT [XGTACX_site2421] | 7.57 ± 0.55 |
| TTTTAATTAGCTAGACGTACAATAATATACAAATAT [XGTACX_site6068] | 7.95 ± 0.37 |
| CATATGTAGGGAACAATATAATATGCTTTGAATATG [GTGCAC_negctrl_site524] | 7.79 ± 0.81 |
| ATTTTTTTAAGATAAGAAAAATAAAGTGTGGATATT [XGTACX_negctrl_site476] | 8 ± 0.52 |
| CAAACCCACGGACACACACACACAAAAATGATTAAA [CACACA_site5365] | 7.99 ± 0.2 |
| TTTATTTATTTATGTGGTACTTCAAAAATATATACT [XGTACX_site355] | 7.98 ± 0.42 |
| GGATACGCTTTTGTACCACTCCCCCTTTTGGGAATA [CACACA_negctrl_site1363] | 8.43 ± 0.3 |
| ATCATATAAACATATTGTACTTAAATACATAATATT [XGTACX_site3800] | 7.63 ± 0.35 |
| ATATATATATATAGTGCACACTTAAGAATATAAAGA [CACACA_site4771] | 11.5 ± 0.27 |
| AACTATTACTTTCTTTCACACATTTTTTTTTTTTTT [CACACA_site5355] | 7.89 ± 0.75 |
| TGTTATATAATTTAGCGTACAGGTTATAGGACGGAT [XGTACX_site8823] | 8.5 ± 0.35 |
| AACTCTTAGAATGACGGTACAGTATAATAGGTGAAC [XGTACX_site7163] | 7.92 ± 0.92 |
| ATATAATGAATTATTAGAAAATAAAATGAATAAAGT [CACACA_negctrl_site690] | 8.12 ± 0.6 |
